Drawing on the RNAGym collection of RNA variant scans (doi:10.7554/elife.90254), this text covers self-cleavage for 19 variants.

B1: LINE1-full (parent)
chain: UACGUAGGUGGUUUUCCCCUGAUAGUGCUAAGGGGGCCUGGAAGUUUGGACUGGGCAGAGCUCAACACAGCGUGGCAAAGUGGCUGUGGCUAGACUGCCUCUCUGGAUUCCUCGUCACUCAGCAGGGCAUCUCUGAGAGAAAUGCC

The source gives no read counts; variants with many changes may rest on few reads.

Variants of B1 are the subject of the data set. Kind of data set: self-cleavage, relative activity (ratio to wild type); higher = more cleavage; in vitro, sequencing; the parent is a self-cleaving ribozyme.
Consider UACGUAGGUGGUUUUCCCCUGAUAGUGCUAAGGGGGCCUGGAAGUUUGGACUGGGCAGAGCUCAACACAGCGUGGCAAAGUGGCUGUGUCUAGACUGCCUCCCUGGAUUCCUCGUCACUCGGCAGGGCAUCUCUGAGAGAAAUGCC [G89U U102C A121G], for which the self-cleavage stood at 0.08.

Turning to UACGUAGGUGGUUUUCCCCUGAUAGUGCUAAGGGGGCCUGGAAGUUUGGACUGGGCAGAGCUCAACACAGCGUGGCAAAGUGGCUGCGGCUAGACUGCCUCUCUGGACUCCUCGUCACUCAGCGGGGCAUCUCUGAGAGAAAUGCC [U87C U108C A124G], the self-cleavage was determined as 0.

With UACGUAGGUGGUUUUCCCCUGAUAGUGCUAAGGGGGCCUGGAAGUUUGGACUGGGCAGAGCUCAACACAGCGUGGCAAAGUGGCUGUGGUUAGACCGCCUCUCUGGAUUCCUCGUCACUCAGCGGGGCAUCUCUGAGAGAAAAGCC [C90U U96C A124G U143A], the self-cleavage turned out to be 0.06.

Take UACGUAGGUGGUUUUCCCCUGAUAGUGCUAAGGGGGCCUGGAAGUUUGGACUGGGCAGAGCUCAACACAGCGUGGCAAAGUGGCUGUGGCCAGACUACCUCUCUGGAUUCCUCGUCACUCAGCAGGGCGUCUCUGAGGGAAAUGCC [U91C G97A A129G A138G]: the self-cleavage was determined as 0.13.

Consider UACGUAGGUGGUUUUCCCCUGAUAGUGCUAAGGGGGCCUGGAAGUUUGGACUGGGCAGAGCUCAACACAGCGUGGCAAAGUGGCUGUGACUAGACUGCCUCUCUGGAUCCCUCGUCACUCAGCAGGGCAUCCCUGAGAGAAAUGCC [G89A U109C U132C], for which the self-cleavage was 0.04.

In the case of UACGUAGGUGGUUUUCCCCUGAUAGUGCUAAGGGGGCCUGGAAGUUUGGACUGGGCAGAGCUCAACACAGCGUGGCAAAGUGGCUGUGGCCAGACUGCCUCUCUGGAUUCCUCGUCACUCAGCAGGGCAUCUCUGGGUGAAAUGCC [U91C A136G A138U], the self-cleavage was determined as 1.07.

UACGUAGGUGGUUUUCCCCUGAUAGUGCUAAGGGGGCCUGGAAGUUUGGACUGGGCAGAGCUCAACACAGCGUGGCAAAGUGGCUGUGGCCAGACUGCCUCUCUGGACUCCUCGUCACUCAGCAGGGCAUCCCUGAGAGAAAUGCC [U91C U108C U132C]: the self-cleavage was 0.

Regarding UACGUAGGUGGUUUUCCCCUGAUAGUGCUAAGGGGGCCUGGAAGUUUGGACUGGGCAGAGCUCAACACAGCGUGGCAAAGUGGCUGCGGCUAGACUGCCUCUCUGGACUCCUCGUCACUCAGCAGGGCAUCUCAGAGAGUAAUGCC [U87C U108C U134A A140U], the self-cleavage is 0.

In the case of UACGUAGGUGGUUUUCCCCUGAUAGUGCUAAGGGGGCCUGGAAGUUUGGACUGGGCAGAGCUCAACACAGCGUGGCAAAGUGGCUGUGGACAGACUGCCUCUCUGGAUUCCCCGUCACUCAGCAGGGCAUCUCUGAGAGAAAUGCC [C90A U91C U112C], the self-cleavage is 0.1.

In the case of UACGUAGGUGGUUUUCCCCUGAUAGUGCUAAGGGGGCCUGGAAGUUUGGACUGGGCAGAGCUCAACACAGCGUGGCAAAGUGGCUGCGGCUAGACUGCCUCUCUGGAUCCCACGUCACUCAGCAGGGCAUCUCUGAGAGAAAUGCC [U87C U109C U112A], the self-cleavage was found to be 0.45.

On to UACGUAGGUGGUUUUCCCCUGAUAGUGCUAAGGGGGCCUGGAAGUUUGGACUGGGCAGAGCUCAACACAGCGUGGCAAAGUGGCUGUGGCAAGGCCGCCUCUCUGGAUUCCUUGUCACUCAGCAGGGCAUCUCUGAGAGAAAUGCC [U91A A94G U96C C113U], for which the self-cleavage is 0.06.

With UACGUAGGUGGUUUUCCCCUGAUAGUGCUAAGGGGGCCUGGAAGUUUGGACUGGGCAGAGCUCAACACAGCGUGGCAAAGUGGCUGGGGCUAGACUGCCUCUCUGGAUUCCUCGUCGCUCAGCAGGGCAUCUCUGAGUGAGAUGCC [U87G A117G A138U A141G], the self-cleavage stood at 0.1.

For the variant UACGUAGGUGGUUUUCCCCUGAUAGUGCUAAGGGGGCCUGGAAGUUUGGACUGGGCAGAGCUCAACACAGCGUGGCAAAGUGGCUGCGGCUAGACUGCCUCUCUGGAUUCCUCGCCACUCAGCAGGGCAUCUCUGAGGGAAAUGCC [U87C U115C A138G], the self-cleavage amounted to 0.

For the variant UACGUAGGUGGUUUUCCCCUGAUAGUGCUAAGGGGGCCUGGAAGUUUGGACUGGGCAGAGCUCAACACAGCGUGGCAAAGUGGCUGUGGUUAGACUGCCUCUCUGGAUUCCUCGGCACUCAGCAGGGCAUCUCUGAGAGAGAUGCC [C90U U115G A141G], the self-cleavage worked out at 0.04.

As to UACGUAGGUGGUUUUCCCCUGAUAGUGCUAAGGGGGCCUGGAAGUUUGGACUGGGCAGAGCUCAACACAGCGUGGCAAAGUGGCUGUGGCCAGUCUGCCUCUCUGGAUUCCUCGUCACUCAGCAGGGCAUCUCUGAGGGAAAUGCC [U91C A94U A138G], the self-cleavage was found to be 0.08.

For the variant UACGUAGGUGGUUUUCCCCUGAUAGUGCUAAGGGGGCCUGGAAGUUUGGACUGGGCAGAGCUCAACACAGCGUGGCAAAGUGGCUGCGGCUAGACUGCCUCCCUGGAUUCCUCGUCACUCAGCAGGGCAUCUCCGAGGGAAAUGCC [U87C U102C U134C A138G], the self-cleavage was 0.

Take UACGUAGGUGGUUUUCCCCUGAUAGUGCUAAGGGGGCCUGGAAGUUUGGACUGGGCAGAGCUCAACACAGCGUGGCAAAGUGGCUGCGGCUAGACUGCCUCUCCGGAUUCCUCGUCACCCAGCAGGGCAUCUCUGAGAGAAAUGCC [U87C U104C U119C]: the self-cleavage turned out to be 0.

Turning to UACGUAGGUGGUUUUCCCCUGAUAGUGCUAAGGGGGCCUGGAAGUUUGGACUGGGCAGAGCUCAACACAGCGUGGCAAAGUGGCUGUGGCAAGACUGCCUCUCUGGAUCCCUCGUCACUCAGCAGGGCAUCUCUGAGGGAAAUGCC [U91A U109C A138G], the self-cleavage is 0.64.

In the case of UACGUAGGUGGUUUUCCCCUGAUAGUGCUAAGGGGGCCUGGAAGUUUGGACUGGGCAGAGCUCAACACAGCGUGGCAAAGUGGCUGUAGCUAGACUGCCUCUCUGGAUUCCUCGUCACUCAGCUGGGCAUCCCUGAGAGAAAUGCC [G88A A124U U132C], the self-cleavage was determined as 0.06.
